# Laboratory results: a collection of fitness landscapes (doi:10.1016/j.celrep.2020.107928)
# Over roughly 81,000 sequences, “one-hybrid fitness for binding parS DNA” has its median near -0.17; the highest 2% begin near 0.51. The list shows a part of the results.
# B1: Caulobacter ParB omega fusion; a variant is named by its letters at X, in order, B8GW30 (parent)
# chain: MESVVVGEPGMSEGRRGLGRGLSALLGEVDAAPAQAPGEQLGGSREAPIEILQRNPDQPRRTFREEDLEDLSNSIREKGVLQPILVRPSPDTAGEYQIVAGERAWRAAQRAGLKTVPIMVRELDDLAVLEIGIIENVQRADLNVLEEALSYKVLMEKFERTQENIAQTIGKSXSHVANXMRLLXLPDEVQSYLVSGELTAXHARAIAAAADPVALAKQIIEGGLSVRETEALARKAPNLSAGKSKGGRPPRVKDTDTQALESDLSSVLGLDVSIDHRGSTGTLTITYATLEQLDDLCNRLTRGI
# Variants of: B1
# Experiment: one-hybrid fitness for binding parS DNA (scaled: cognate 1, non-cognate 0); higher = stronger binding
# Settings: with parS DNA site
# Summary of the method: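 On M9-minus-histidine containing 0.1 mM IPTG and 5 mM 3-AT, E. coli USO cells with a HIS3 reporter, site 19 bp from the promoter, grew 48 hours at 37°C to select Caulobacter ParB libraries randomised at four specificity codons. Plasmids from before and after were Illumina-sequenced, with three replicate libraries pooled and variants under 10 reads left out. Fitness is the log change in variant-to-wild-type read ratio, rescaled against cognate and non-cognate.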
row,Variant,one-hybrid fitness for binding parS DNA
1,GCAS,≤ 0.2
2,GATM,≤ 0.2
3,RILC,0.97
4,HIYP,≤ 0.2
5,AEST,≤ 0.2
6,GPPE,≤ 0.2
7,FWKN,≤ 0.2
8,TVVT,≤ 0.2
9,QSDW,≤ 0.2
10,GLSV,≤ 0.2
11,NFRG,≤ 0.2
12,PVPN,≤ 0.2
13,RRYS,0.68
14,LTHF,≤ 0.2
15,SGSY,≤ 0.2
16,GVYS,≤ 0.2
17,DVQR,≤ 0.2
18,SWMA,≤ 0.2
19,LTNN,≤ 0.2
20,AKPQ,≤ 0.2
21,GANA,≤ 0.2
22,MSAS,≤ 0.2
23,LNRV,≤ 0.2
24,CSAH,≤ 0.2
25,LRIP,≤ 0.2

row,Variant,one-hybrid fitness for binding parS DNA
1,RHED,≤ 0.2
2,YYNL,≤ 0.2
3,QQRR,≤ 0.2
4,TTEV,≤ 0.2
5,SAED,≤ 0.2
6,RDYY,≤ 0.2
7,CCYA,≤ 0.2
8,QDLT,≤ 0.2
9,MSIL,≤ 0.2
10,THLD,≤ 0.2
11,CVCF,≤ 0.2
12,TQNV,≤ 0.2
13,PAEP,≤ 0.2
14,YLRS,≤ 0.2
15,GNYS,≤ 0.2
16,HGIC,≤ 0.2
17,RRLV,≤ 0.2
18,IRDI,≤ 0.2
19,NQFR,≤ 0.2
20,RHRF,≤ 0.2
21,RKDR,≤ 0.2
22,RVTT,0.949
23,LSNK,≤ 0.2
24,RVEA,0.483
25,NHIT,≤ 0.2

row,Variant,one-hybrid fitness for binding parS DNA
1,HQLG,≤ 0.2
2,GTWI,≤ 0.2
3,GKTA,≤ 0.2
4,FSWG,≤ 0.2
5,IVIS,≤ 0.2
6,RRAF,≤ 0.2
7,WCYG,≤ 0.2
8,PHHR,≤ 0.2
9,RHLG,0.967
10,PQRG,≤ 0.2
11,CKKK,≤ 0.2
12,RDHG,≤ 0.2
13,FVWS,≤ 0.2
14,REKN,≤ 0.2
15,NGHC,≤ 0.2
16,FQNA,≤ 0.2
17,KETN,≤ 0.2
18,YISS,≤ 0.2
19,HSDL,≤ 0.2
20,PKMR,≤ 0.2
21,GAQR,≤ 0.2
22,DLVK,≤ 0.2
23,TQTV,≤ 0.2
24,RQAL,≤ 0.2
25,QESM,≤ 0.2

row,Variant,one-hybrid fitness for binding parS DNA
1,PIER,≤ 0.2
2,MRCG,≤ 0.2
3,AKHQ,≤ 0.2
4,PDFL,≤ 0.2
5,PYRM,≤ 0.2
6,GSGM,≤ 0.2
7,GFIT,≤ 0.2
8,YLIY,≤ 0.2
9,FKLV,≤ 0.2
10,PTWE,≤ 0.2
11,WGGR,≤ 0.2
12,VVNF,≤ 0.2
13,TKYV,≤ 0.2
14,NLSC,≤ 0.2
15,GTVQ,≤ 0.2
16,SPLF,≤ 0.2
17,PGAL,≤ 0.2
18,GAST,≤ 0.2
19,FIAR,≤ 0.2
20,NDLC,≤ 0.2
21,RRML,≤ 0.2
22,VTDW,≤ 0.2
23,RWQH,≤ 0.2
